Results: article PMC4336329 (PLoS ONE, 2015)
Out of some 310,000 compounds screened, about 14,000 (4.5%) showed an effect of 50% or more. Effects have a minus sign here. This is one part of the list.

Biological target: human ether-à-go-go-related gene (hERG) potassium channel (human, UniProt Q12809)
Experiment: primary screen, population patch clamp on CHO cells stably expressing hERG
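Note: peak tail current of the secondary pulse compared with the same well before compound.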

Sequence of human ether-à-go-go-related gene (hERG) potassium channel (Q12809 whole entry, looked up): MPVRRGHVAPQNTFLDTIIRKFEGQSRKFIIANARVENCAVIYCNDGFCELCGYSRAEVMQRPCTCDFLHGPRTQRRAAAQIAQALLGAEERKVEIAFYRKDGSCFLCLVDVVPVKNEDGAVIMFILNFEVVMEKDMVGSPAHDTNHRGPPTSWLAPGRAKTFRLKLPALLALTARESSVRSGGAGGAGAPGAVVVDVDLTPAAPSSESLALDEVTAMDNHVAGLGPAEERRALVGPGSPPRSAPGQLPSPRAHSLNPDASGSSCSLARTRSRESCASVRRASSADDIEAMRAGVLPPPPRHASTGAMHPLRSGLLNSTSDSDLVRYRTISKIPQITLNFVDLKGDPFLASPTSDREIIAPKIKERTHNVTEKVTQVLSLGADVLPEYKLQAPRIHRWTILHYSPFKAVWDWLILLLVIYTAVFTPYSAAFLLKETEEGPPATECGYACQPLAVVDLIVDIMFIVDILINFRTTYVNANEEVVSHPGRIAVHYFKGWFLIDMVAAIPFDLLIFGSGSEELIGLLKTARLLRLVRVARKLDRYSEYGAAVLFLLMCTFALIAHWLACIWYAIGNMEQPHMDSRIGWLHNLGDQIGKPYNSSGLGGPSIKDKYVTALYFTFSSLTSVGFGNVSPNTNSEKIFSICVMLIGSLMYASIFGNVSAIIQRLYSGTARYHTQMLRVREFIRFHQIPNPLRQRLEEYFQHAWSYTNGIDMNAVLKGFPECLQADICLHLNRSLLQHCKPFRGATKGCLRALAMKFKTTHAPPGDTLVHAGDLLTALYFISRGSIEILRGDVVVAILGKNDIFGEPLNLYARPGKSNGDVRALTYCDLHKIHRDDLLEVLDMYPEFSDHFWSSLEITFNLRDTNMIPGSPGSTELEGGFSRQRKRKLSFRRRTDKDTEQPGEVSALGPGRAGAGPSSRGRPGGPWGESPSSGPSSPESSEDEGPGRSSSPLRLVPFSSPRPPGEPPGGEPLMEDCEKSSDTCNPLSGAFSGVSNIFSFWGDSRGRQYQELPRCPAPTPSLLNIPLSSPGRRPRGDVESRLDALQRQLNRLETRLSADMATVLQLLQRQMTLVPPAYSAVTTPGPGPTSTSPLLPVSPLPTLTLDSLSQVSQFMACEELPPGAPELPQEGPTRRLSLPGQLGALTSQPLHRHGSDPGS

For `CC(C)NC(=O)NS(=O)(=O)c1cnccc1NC1CC2CCC1C2` (stereo not shown), which “hERG current change (%, negative = inhibition) at 10uM” value is on record?
The value was 3.42%.

How did the “hERG current change (%, negative = inhibition) at 10uM” value turn out when `Cc1ccccc1-n1c(O)c(C=Nc2ccc(N(C)C)cc2)c(=O)[nH]c1=O` was run?
Its value is -21.9%.

`CSc1cccc(NC(=S)Nc2cc(C)ccc2C)c1` was tested. Which “hERG current change (%, negative = inhibition) at 10uM” value did it give?
Its value is 3.75%.

With `COc1ccc(N2C(=NC(=O)C3CC3)SC3CS(=O)(=O)CC32)cc1Cl` (stereo not shown) as the compound, how does the “hERG current change (%, negative = inhibition) at 10uM” value read?
The value was 1.69%.

How did the “hERG current change (%, negative = inhibition) at 10uM” value turn out when `CN(C(=O)c1ccc(NC(=O)Cc2cccc(NC(=O)C3CCN(C(=O)C4CCCCC4)CC3)c2)cc1)C1CCCC1` was run?
Its value is 9.93%.

With `COc1ccc(C(=O)N/C(=C/c2ccco2)C(=O)NCc2ccco2)cc1` as the compound, how does the “hERG current change (%, negative = inhibition) at 10uM” value read?
The value was -30.1%.

`Cc1ccc(NC(=O)CSCC(=O)Nc2ccc(S(=O)(=O)N3CCOCC3)cc2)cc1` was tested. Which “hERG current change (%, negative = inhibition) at 10uM” value did it give?
The value was 5.39%.

For `COCCN(CC(=O)NC1CCCCC1)C(=O)c1csnn1`, which “hERG current change (%, negative = inhibition) at 10uM” value is on record?
The value was 12%.

`O=C(Nc1nc2ccccc2s1)c1ccc([N+](=O)[O-])o1` was tested. Which “hERG current change (%, negative = inhibition) at 10uM” value did it give?
Its value is 17.1%.

For `Cn1c(=O)c2c(O)cc(=O)n(-c3ccccc3)c2n(C)c1=O`, which “hERG current change (%, negative = inhibition) at 10uM” value is on record?
Its value is 8.41%.

How did the “hERG current change (%, negative = inhibition) at 10uM” value turn out when `CCOc1ccc(C(=O)NCC(=O)N2CCCCCCC2)cc1OCC` was run?
The value was 1.47%.

`COc1cc(Br)c(S(=O)(=O)Nc2c(C)n(C)n(-c3ccccc3)c2=O)cc1OC` was tested. Which “hERG current change (%, negative = inhibition) at 10uM” value did it give?
The value was 11.1%.

With `O=C(Cn1nc(-c2ccccc2)ccc1=O)N1CCC2(CC1)OCCO2` as the compound, how does the “hERG current change (%, negative = inhibition) at 10uM” value read?
Its value is -1.12%.

How did the “hERG current change (%, negative = inhibition) at 10uM” value turn out when `Cc1[nH][nH]c(=O)c1C(c1ccc(Cl)cc1)c1c(C)[nH][nH]c1=O` was run?
The value was 15%.

Which “hERG current change (%, negative = inhibition) at 10uM” value does the source give for `Cc1c(NC(=O)CC(=O)Nc2c(C)n(C)n(-c3ccccc3)c2=O)c(=O)n(-c2ccccc2)n1C` here?
The value was 12.2%.

For `CCCCN(CC)S(=O)(=O)c1ccc2c(c1)n(C)c(=O)c(=O)n2C`, which “hERG current change (%, negative = inhibition) at 10uM” value is on record?
Its value is -31.7%.

How did the “hERG current change (%, negative = inhibition) at 10uM” value turn out when `O=C(Oc1ccccc1N1C(=O)C2CC=CCC2C1=O)c1ccc(Br)cc1` (stereo not shown) was run?
The value was -3.07%.

With `CCOC(=O)Cn1nnnc1C(CC)N(Cc1cccs1)Cc1cc2cc(C)ccc2[nH]c1=O` (stereo not shown) as the compound, how does the “hERG current change (%, negative = inhibition) at 10uM” value read?
Its value is -6.3%.

How did the “hERG current change (%, negative = inhibition) at 10uM” value turn out when `COc1cc2[nH]c(=S)n(NC(=O)c3ccccc3)c(=O)c2cc1OC` was run?
The value was 2.51%.

How did the “hERG current change (%, negative = inhibition) at 10uM” value turn out when `N/C(Cc1cccc2ccccc12)=N\OC(=O)c1ccc2c(c1)OCO2` was run?
The value was 9.17%.

With `O=C(c1ccco1)N1CCN(CCCCN2C(=O)c3ccccc3C2=O)CC1` as the compound, how does the “hERG current change (%, negative = inhibition) at 10uM” value read?
Its value is -40%.

Which “hERG current change (%, negative = inhibition) at 10uM” value does the source give for `O=[N+]([O-])c1ccc(CN2CCN(c3nc4ccccc4s3)CC2)cc1` here?
Its value is -1.07%.

`CC(C)(C)NC(=O)c1ccccc1NC(=O)C1CC(=O)N(C2CCCCC2)C1` (stereo not shown) was tested. Which “hERG current change (%, negative = inhibition) at 10uM” value did it give?
Its value is 2.85%.

For `O=C(NCCc1ccc(Cl)cc1)C1CCC(CNc2nc(=S)[nH]c3ccccc23)CC1` (stereo not shown), which “hERG current change (%, negative = inhibition) at 10uM” value is on record?
Its value is -3.48%.

For `COc1cc(C(=O)NCC2CCCO2)ccc1OCc1ccc(Cl)cc1` (stereo not shown), which “hERG current change (%, negative = inhibition) at 10uM” value is on record?
The value was -1.43%.

For `CCOC(=O)N1CCN(C(=O)CS(=O)(=O)c2cn(Cc3ccc(Cl)cc3)c3ccccc23)CC1`, which “hERG current change (%, negative = inhibition) at 10uM” value is on record?
The value was -39.3%.

For `COc1ccc(-n2nc(C(=O)NCC(=O)N3CC(C)CC(C)C3)c3ccccc3c2=O)cc1` (stereo not shown), which “hERG current change (%, negative = inhibition) at 10uM” value is on record?
Its value is 1.45%.

`C/C(=N\Nc1nc2ccccc2[nH]1)c1ccc([N+](=O)[O-])cc1` was tested. Which “hERG current change (%, negative = inhibition) at 10uM” value did it give?
Its value is 10.9%.

`CCOC(=O)NCN1C(=O)C2C3C=CC(C3)C2C1=O` (stereo not shown) was tested. Which “hERG current change (%, negative = inhibition) at 10uM” value did it give?
Its value is -11.9%.

`CCCNC(=O)CS(=O)Cc1nc(-c2ccccc2C)oc1C` (stereo not shown) was tested. Which “hERG current change (%, negative = inhibition) at 10uM” value did it give?
Its value is 6.71%.

`Cc1ccc(S(=O)(=O)CCC(=O)OCc2ccccc2)cc1` was tested. Which “hERG current change (%, negative = inhibition) at 10uM” value did it give?
The value was 8.36%.

How did the “hERG current change (%, negative = inhibition) at 10uM” value turn out when `Cc1cc(-n2c(C)cc(C(=O)CN3C(=O)NC4(CCCCCC4)C3=O)c2C)no1` was run?
Its value is -4.62%.

How did the “hERG current change (%, negative = inhibition) at 10uM” value turn out when `Cc1cccc2c1cnn2C(=O)Nc1cc(F)ccc1F` was run?
The value was 16.5%.

With `Cc1sc2nc(C(C)(C)C)oc(=O)c2c1C` as the compound, how does the “hERG current change (%, negative = inhibition) at 10uM” value read?
Its value is 4.72%.

For `O=C(CN1C(=O)c2cccc3cccc1c23)NCc1ccc2c(c1)OCO2`, which “hERG current change (%, negative = inhibition) at 10uM” value is on record?
The value was -13.2%.

`CCc1nc(C(N)=O)c2[nH]c(=O)n(-c3ccc(OC)cc3OC)c2n1` was tested. Which “hERG current change (%, negative = inhibition) at 10uM” value did it give?
Its value is 13.5%.

`Cc1ccc(C(C[N+](=O)[O-])c2c(C)[nH]n(-c3ccccc3)c2=O)cc1` (stereo not shown) was tested. Which “hERG current change (%, negative = inhibition) at 10uM” value did it give?
The value was -4.88%.

`O=C(OCC(=O)N1CCCC1)c1cccs1` was tested. Which “hERG current change (%, negative = inhibition) at 10uM” value did it give?
Its value is 16.2%.

Which “hERG current change (%, negative = inhibition) at 10uM” value does the source give for `Cc1ccccc1NC(=O)CCN1CCc2ccccc2C1` here?
The value was -0.685%.

For `CCc1ccc(OCC(O)CN2CCCC2)cc1.Cl` (stereo not shown), which “hERG current change (%, negative = inhibition) at 10uM” value is on record?
The value was -13.8%.

`Cc1nn(C(C)C(=O)NCCc2ccco2)c(=O)c2nn(-c3ccccc3)c(C)c12` (stereo not shown) was tested. Which “hERG current change (%, negative = inhibition) at 10uM” value did it give?
Its value is 10.6%.

How did the “hERG current change (%, negative = inhibition) at 10uM” value turn out when `CCS(=O)(=O)n1nc(-c2ccc(Cl)cc2)nc1SCc1ccccc1` was run?
Its value is -3.32%.

How did the “hERG current change (%, negative = inhibition) at 10uM” value turn out when `CCC(=O)N1c2ccc(S(=O)(=O)N3CCCCC3)cc2CC1C` (stereo not shown) was run?
Its value is 17.8%.

How did the “hERG current change (%, negative = inhibition) at 10uM” value turn out when `CC(C)(C)OC(=O)NN1CC(=O)N2Cc3[nH]c4ccccc4c3C[C@H]2C1=O` was run?
The value was -1.3%.

With `O=C(Nc1ccc(Oc2ccc(NC(=O)C3CCCO3)cc2)cc1)C1CCCO1` (stereo not shown) as the compound, how does the “hERG current change (%, negative = inhibition) at 10uM” value read?
Its value is 13.5%.

For `O=C(Nc1ccc(-c2cnco2)cc1)c1ccccc1`, which “hERG current change (%, negative = inhibition) at 10uM” value is on record?
Its value is 13.8%.

How did the “hERG current change (%, negative = inhibition) at 10uM” value turn out when `COc1ccc2oc(C(=O)OCC(=O)NCc3ccccc3OC)c(C)c2c1` was run?
Its value is 20%.

With `CC(=O)c1ccc(N2CCN(S(=O)(=O)c3c(C(=O)N4CCCCC4)c(C)n(C)c3C)CC2)cc1` as the compound, how does the “hERG current change (%, negative = inhibition) at 10uM” value read?
The value was -2.75%.

With `O=C(O)C(CO)N=Cc1c(O)c2ccccc2oc1=O` (stereo not shown) as the compound, how does the “hERG current change (%, negative = inhibition) at 10uM” value read?
The value was 14%.

For `COc1ccc(Cc2nc(N)nc(N)n2)cc1`, which “hERG current change (%, negative = inhibition) at 10uM” value is on record?
The value was 6.61%.

How did the “hERG current change (%, negative = inhibition) at 10uM” value turn out when `CCc1ccccc1N1C(=O)CN(Cc2cc(OC)c(OC)c(OC)c2)C1=S` was run?
Its value is 13.9%.

Which “hERG current change (%, negative = inhibition) at 10uM” value does the source give for `Cn1c(SCC(=O)NC(=O)CN2CCCC2=O)nnc1-c1ccc(F)cc1` here?
The value was -1.09%.

With `O=P(c1ccccc1)(c1ccccc1)C(c1ccccn1)P(=O)(c1ccccc1)c1ccccc1` as the compound, how does the “hERG current change (%, negative = inhibition) at 10uM” value read?
The value was 3.19%.

`COc1cc(CNCc2cccs2)ccc1OCC(=O)NC(C)(C)C.Cl` was tested. Which “hERG current change (%, negative = inhibition) at 10uM” value did it give?
The value was -4.1%.

`CC1(c2ccc(Cl)cc2)NC(=O)N(CC(=O)NCCC2=CCCCC2)C1=O` (stereo not shown) was tested. Which “hERG current change (%, negative = inhibition) at 10uM” value did it give?
The value was -2.42%.
